PubChem BioAssay AID1721 (National Center for Advancing Translational Sciences (NCATS), 2009)
In all, about 290,000 compounds went through this assay and about 1,100 (0.38%) were called active. This list was built around the results that the source calls inconclusive (neither active nor inactive); the mix of calls is not that of the screen. Calls follow the shape of the dose curve; as a rule, active = well fitted inhibition curve with a large enough effect; inconclusive = small, poorly fitted or top-dose-only effect, or another doubt; inactive = no such curve, though single readings can be large or run the other way. Potencies beside an inconclusive call are fits to weak or partial responses and may not hold up.

biological target: Pyruvate kinase (Leishmania mexicana) (UniProt Q27686); assay: qHTS Assay for Inhibitors of Leishmania Mexicana Pyruvate Kinase (LmPK); details: purified LmPK, Kinase-Glo ATP luminescence, 1 h; activity change, negative = inhibition: at 57.5 µM (top of the series) unless noted
Summary of the method: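 Purified LmPK (0.1 nM) converted ADP (0.1 mM) to ATP with PEP (0.5 mM) in imidazole buffer pH 7.2 with KCl and MgCl2, 1 h at room temperature. ATP was read by Kinase-Glo luminescence; data normalized to uninhibited and no-enzyme controls.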
% is scaled to controls: 0 for no effect and ±100 for the full control effect; potency is read from the fitted curve at half-maximal effect; tags tell the direction and shape of the fitted curve.

Chain of UniProt Q27686 (Q27686 whole entry, looked up): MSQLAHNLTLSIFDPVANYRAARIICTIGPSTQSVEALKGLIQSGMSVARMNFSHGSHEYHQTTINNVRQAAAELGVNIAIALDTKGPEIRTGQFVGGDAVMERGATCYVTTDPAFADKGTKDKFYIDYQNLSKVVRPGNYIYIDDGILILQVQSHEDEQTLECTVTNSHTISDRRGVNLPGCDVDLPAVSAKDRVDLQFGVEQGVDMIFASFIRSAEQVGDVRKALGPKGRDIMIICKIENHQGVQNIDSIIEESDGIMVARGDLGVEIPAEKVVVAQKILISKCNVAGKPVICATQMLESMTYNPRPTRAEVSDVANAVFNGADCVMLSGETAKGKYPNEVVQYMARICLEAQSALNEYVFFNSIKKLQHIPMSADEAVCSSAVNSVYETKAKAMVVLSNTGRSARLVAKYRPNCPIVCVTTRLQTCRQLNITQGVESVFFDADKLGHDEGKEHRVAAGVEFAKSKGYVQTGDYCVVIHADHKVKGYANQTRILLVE

Q: With `OCC1(Cc2ccccc2)CCN(Cc2ccc(-c3ccco3)cc2)CC1` as the molecule, how does the “activity change, negative = inhibition” value read?
A: The value was inactive: 5.24%.

Q: How did the Potency turn out when `O=C(Nc1nc2ccccc2s1)c1ccc2c(c1)OCO2` was run?
A: Its Potency is inconclusive: 14.1 µM [falling, partial curve].

Q: How did the Potency turn out when `Oc1[nH]c(=S)sc1C=C1N=c2ccccc2=N1` was run?
A: The Potency was active: 15.8 µM.

Q: For `S=c1[nH]nc(-c2cccc3ccccc23)n1-c1cccnc1`, which Potency is on record?
A: Its Potency is active: 12.6 µM.

Q: How did the “activity change, negative = inhibition” value turn out when `Cc1ccc(C)c(NC(=O)c2ccccc2O)c1` was run?
A: The value was inactive: -1.71%.

Q: How did the Potency turn out when `CC(C)CN=Cc1c(O)c([N+](=O)[O-])cc2oc3c(c12)CCCC3` was run?
A: Its Potency is active: 10 µM.

Q: Which Potency does the source give for `CC(C)Cn1c(-c2ccco2)n[nH]c1=S` here?
A: The Potency was inconclusive: 39.8 µM [falling, single point].

Q: With `Cc1ccc(C2CC2c2n[nH]c(=S)n2-c2cccc(Cl)c2)cc1` (stereo not given) as the molecule, how does the Potency read?
A: Its Potency is inconclusive: 22.4 µM [falling, single point].

Q: For `Cc1ccc(N/C=C/C(=O)c2cccs2)cc1C`, which Potency is on record?
A: Its Potency is inconclusive: 15.8 µM [falling, partial curve].

Q: `O=C(NCC(c1ccco1)N1CCCCC1)c1ccc(OCc2ccccc2)cc1` (stereo not given) was tested. Which “activity change, negative = inhibition” value did it give?
A: The value was inactive: 10.2%.

Q: `N#Cc1c(/N=C/c2cccs2)sc2c1CCCCC2` was tested. Which Potency did it give?
A: The Potency was inconclusive: 25.1 µM [falling, single point].

Q: `Cc1ccc(C(=O)O/N=C2\CCCc3ccccc32)cc1` was tested. Which Potency did it give?
A: Its Potency is inconclusive: 12.6 µM [falling, partial curve].

Q: Which Potency does the source give for `COc1ccc(CNc2nc3ccccc3n2C)c(OC)c1` here?
A: Its Potency is active: 17.8 µM.

Q: For `Cc1nc2cc(NC(=O)Nc3ccccc3Cl)ccc2n1C`, which Potency is on record?
A: The Potency was inconclusive: 15.8 µM [falling, partial curve].

Q: Which “activity change, negative = inhibition” value does the source give for `Cc1cc(SCC(=O)Nc2ccc(O)cc2)n2nc(C)c(-c3ccccc3)c2n1` here?
A: Its value is inactive: 2.35%.

Q: Which Potency does the source give for `CC(C)Cc1cc(C(=O)Nc2cccc(O)c2)no1` here?
A: Its Potency is inconclusive: 14.1 µM [falling, partial curve].

Q: Which Potency does the source give for `N/C(=N\OC(=O)c1ccccc1)c1ccccn1` here?
A: The Potency was active: 4.47 µM.

Q: `Nc1ccc2c(c1)C(=O)C(=O)c1ccccc1-2` was tested. Which Potency did it give?
A: The Potency was inconclusive: 28.2 µM [falling, single point].

Q: With `O=C(Cc1ccccc1)c1ccc2c(c1)OCCO2` as the molecule, how does the Potency read?
A: The Potency was inconclusive: 12.6 µM [falling, partial curve].

Q: Which “activity change, negative = inhibition” value does the source give for `Cc1ccc(C2=NN(C(=O)CCCC(=O)O)C(c3ccc4c(c3)OCO4)C2)cc1` (stereo not given) here?
A: The value was inactive: 5.94%.

Q: `O=C(NCc1ccccc1)c1cc2ccc(O)cc2oc1=O` was tested. Which Potency did it give?
A: Its Potency is inconclusive: 20 µM [falling, partial curve].

Q: How did the Potency turn out when `Oc1c(N=Nc2ccccc2)sc2ccccc12` was run?
A: Its Potency is inconclusive: 14.1 µM [falling, partial curve].

Q: `O=C(Nc1ccc(C(=O)N2CCCC2)cc1)c1ccccc1F` was tested. Which Potency did it give?
A: Its Potency is active: 14.1 µM.

Q: For `FC(F)Sc1ccc(NC(=S)NCC2CCCCC2)cc1`, which “activity change, negative = inhibition” value is on record?
A: The value was inactive: 5.28%.

Q: Which Potency does the source give for `CC(=O)Oc1ccc(/C=C2/CCc3ccccc3C2=O)cc1` here?
A: Its Potency is active: 14.1 µM.

Q: For `N/C(=N\OC(=O)CC1CCCCC1)c1ccccn1`, which Potency is on record?
A: Its Potency is inconclusive: 12.6 µM [falling, partial curve].

Q: `C/C(Cn1cnc([N+](=O)[O-])n1)=N\NC(=O)c1ccc(O)cc1O` was tested. Which “activity change, negative = inhibition” value did it give?
A: Its value is inactive: 0.151%.

Q: Which “activity change, negative = inhibition” value does the source give for `O=[N+]([O-])c1cccc(S(=O)(=O)NCCOc2cccc3cccnc23)c1` here?
A: The value was inactive: -4%.

Q: Which Potency does the source give for `Cc1sc(NC(=O)c2ccccc2F)c(CN2CCCCC2)c1C` here?
A: Its Potency is inconclusive: 31.6 µM [falling, single point].

Q: `CC(C)n1cc(/C=C2/SC(=O)N(CC(=O)N3CCCC3)C2=O)c2ccccc21` was tested. Which “activity change, negative = inhibition” value did it give?
A: The value was inactive: -0.0635%.

Q: Which “activity change, negative = inhibition” value does the source give for `CCN(CC)S(=O)(=O)c1cc(C(=O)OCC(=O)Nc2ccc(-c3nc4ccc(C)cc4s3)cc2)ccc1F` here?
A: Its value is inactive: 2.16%.

Q: Which Potency does the source give for `CCc1cc(-c2n[nH]c(=S)n2C(C)c2ccccc2)cs1` (stereo not given) here?
A: Its Potency is active: 14.1 µM.

Q: `Cc1cccc(-c2cc3c(nn2)-c2ccccc2C3=O)c1` was tested. Which Potency did it give?
A: Its Potency is active: 7.08 µM.

Q: `CC1=NOC(=O)/C1=C/c1ccc(N(C)C)cc1` was tested. Which Potency did it give?
A: Its Potency is inconclusive: 28.2 µM [falling, single point].

Q: Which Potency does the source give for `O=c1c2c(nc3n1CCCCC3)sc1c(O)cccc12` here?
A: Its Potency is inconclusive: 28.2 µM [falling, partial curve].

Q: `Cc1c(/C=C/C(=O)c2ccccc2)cnn1C` was tested. Which Potency did it give?
A: Its Potency is inconclusive: 17.8 µM [falling, partial curve].

Q: How did the “activity change, negative = inhibition” value turn out when `c1ccc2c(c1)ccc1ncccc12` was run?
A: The value was inactive: -2.82%.

Q: Which “activity change, negative = inhibition” value does the source give for `COc1cc(C#N)ccc1OCC(=O)Nc1cccc(S(=O)(=O)N2CCCC2)c1` here?
A: Its value is inactive: -0.059%.

Q: Which Potency does the source give for `O=C(/C=C/c1ccc2c(c1)OCCO2)c1ccccc1` here?
A: The Potency was active: 12.6 µM.

Q: How did the “activity change, negative = inhibition” value turn out when `Cc1nc(SCC(=O)N2CCOCC2)c2c(C)c(C)sc2n1` was run?
A: The value was inactive: -4.96%.

Q: `CCc1sc(C(=O)N2CCc3ccccc32)cc1C` was tested. Which Potency did it give?
A: Its Potency is active: 25.1 µM.

Q: For `COc1ccc(-c2csc(NC(=S)NC(=O)c3ccco3)n2)cc1`, which “activity change, negative = inhibition” value is on record?
A: The value was inactive: -0.134%.

Q: Which “activity change, negative = inhibition” value does the source give for `COc1ccc(C(=O)NNC(=O)OC(C)(C)C)cc1` here?
A: The value was inactive: 3.15%.

Q: For `O=C(NCc1ccccc1)c1cccc(COc2ccccc2Cl)c1`, which “activity change, negative = inhibition” value is on record?
A: Its value is inactive: 3.22%.

Q: `O=C(COC(=O)c1cccnc1Cl)c1ccc(F)cc1` was tested. Which Potency did it give?
A: The Potency was inconclusive: 25.1 µM [falling, partial curve].

Q: With `CC(=O)c1cccc(NC(=S)NC(=O)c2ccccc2)c1` as the molecule, how does the “activity change, negative = inhibition” value read?
A: Its value is inactive: 1.57%.

Q: How did the Potency turn out when `COc1ccc(-c2nc(CCl)cs2)cc1` was run?
A: Its Potency is inconclusive: 28.2 µM [falling, single point].

Q: `O=C(CCCN1C(=O)/C(=C/c2ccccc2Cl)SC1=S)N1CCCC1` was tested. Which Potency did it give?
A: The Potency was inconclusive: 17.8 µM [falling, partial curve].

Q: For `S=c1[nH]ccn1-c1cccc(Cl)c1Cl`, which Potency is on record?
A: The Potency was inconclusive: 25.1 µM [falling, partial curve].

Q: Which Potency does the source give for `Cc1ccc(-c2n[nH]c(=S)n2/N=C/c2cccn2C)cc1` here?
A: Its Potency is active: 7.94 µM.

Q: With `CCOc1ccc(NC(=O)Nc2cc(C)ccc2OC)cc1` as the molecule, how does the Potency read?
A: Its Potency is inconclusive: 20 µM [falling, single point].

Q: `COc1cc([N+](=O)[O-])c(OC)cc1SCc1n[nH]c(=S)n1-c1ccc(C)cc1` was tested. Which Potency did it give?
A: The Potency was inconclusive: 25.1 µM [falling, single point].

Q: For `Brc1ccc(N/N=C(/N=Nc2nn[nH]n2)c2ccccc2)cc1`, which Potency is on record?
A: The Potency was inconclusive: 28.2 µM [falling, partial curve].

Q: Which “activity change, negative = inhibition” value does the source give for `CCOc1ccc(CCNC(=O)CCS(=O)(=O)c2ccc(Br)cc2)cc1OCC` here?
A: The value was inactive: -1.9%.

Q: For `C/C(CC(=O)Nc1cccc2c1CCCC2)=N\NC(=O)c1ccccc1N`, which “activity change, negative = inhibition” value is on record?
A: Its value is inactive: 2.18%.
